# The other results are listed elsewhere or left out.
# B1: CLECb-Precomplexed (Mus musculus), P43025 (protein)
# chain: MAKNGLVLCILVVSLLLDQTDGYPSRMKARKHSKRRVKAKDDDLKSQVEKLWREVNALKEMQALQTVCLRGTKVHKKCYLASEGLKHYHEANEDCISKGGTLVVPRNSDEINALRDYGKRSLPGVNDFWLGINDMVTEGKFLDVHGFAVSFLNWDRAQPSGGKRENCVLFSQSAQGKWSDEACRSSKRYICEFIIPTRTRPLEQKLISEEDLAANDILDYKDDDDKV
# Assays:
# Experiment in all cases: glycan array binding signal (z-score within array); higher = stronger binding
# Details in all cases: glycan notation: IUPAC condensed, linker removed
# [1] = target: Fuc(a1-2)Gal
# In short: (§1)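 The binding signal is a Z-score computed within each array and averaged over linkers. Arrays of the same protein sequence at different concentrations or buffers were also averaged together. Data originate from 3228 arrays in the Consortium for Functional Glycomics database, kept only where the protein sequence was available.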
# [2] = target: Fuc(a1-2)Gal(b1-3)GalNAc
# In short: as §1
# [3] = target: Fuc(a1-2)Gal(b1-3)GalNAc(a1-3)[Fuc(a1-2)]Gal(b1-4)Glc
# In short: as §1
# [4] = target: Fuc(a1-2)Gal(b1-3)GalNAc(a1-3)[Fuc(a1-2)]Gal(b1-4)GlcNAc
# In short: as §1
# [5] = target: Fuc(a1-2)Gal(b1-3)GalNAc(b1-3)Gal
# In short: as §1
# [6] = target: Fuc(a1-2)Gal(b1-3)GalNAc(b1-3)Gal(a1-4)Gal(b1-4)Glc
# In short: as §1
# [7] = target: Fuc(a1-2)Gal(b1-3)GalNAc(b1-4)[Neu5Ac(a2-3)]Gal(b1-4)Glc
# In short: as §1
# [8] = target: Fuc(a1-2)Gal(b1-3)GlcNAc
# In short: as §1
# [9] = target: Fuc(a1-2)Gal(b1-3)GlcNAc(b1-2)Man(a1-3)[Fuc(a1-2)Gal(b1-3)GlcNAc(b1-2)Man(a1-6)]Man(b1-4)GlcNAc(b1-4)GlcNAc
# In short: as §1
# [10] = target: Fuc(a1-2)Gal(b1-3)GlcNAc(b1-2)Man(a1-3)[Fuc(a1-2)Gal(b1-3)GlcNAc(b1-2)Man(a1-6)]Man(b1-4)GlcNAc(b1-4)[Fuc(a1-6)]GlcNAc
# In short: as §1
# [11] = target: Fuc(a1-2)Gal(b1-3)GlcNAc(b1-3)Gal(b1-4)Glc
# In short: as §1
# [12] = target: Fuc(a1-2)Gal(b1-3)GlcNAc(b1-3)GalNAc
# In short: as §1
# [13] = target: Fuc(a1-2)Gal(b1-3)GlcNAc(b1-3)[Fuc(a1-2)Gal(b1-3)GlcNAc(b1-6)]GalNAc
# In short: as §1
# [14] = target: Fuc(a1-2)Gal(b1-3)GlcNAc(b1-3)[Gal(b1-4)GlcNAc(b1-6)]Gal(b1-4)Glc
# In short: as §1
# [15] = target: Fuc(a1-2)Gal(b1-3)GlcNAc(b1-3)[Neu5Ac(a2-6)Gal(b1-4)GlcNAc(b1-6)]Gal(b1-4)Glc
# In short: as §1
# [16] = target: Fuc(a1-2)Gal(b1-3)GlcNAc6S
# In short: as §1
# [17] = target: Fuc(a1-2)Gal(b1-3)[Fuc(a1-4)]GlcNAc
# In short: as §1
# [18] = target: Fuc(a1-2)Gal(b1-3)[Fuc(a1-4)]GlcNAc(b1-2)Man(a1-3)[Fuc(a1-2)Gal(b1-3)[Fuc(a1-4)]GlcNAc(b1-2)Man(a1-3)]Man(b1-4)GlcNAc(b1-4)GlcNAc
# In short: as §1
# [19] = target: Fuc(a1-2)Gal(b1-3)[Fuc(a1-4)]GlcNAc(b1-2)Man(a1-3)[Fuc(a1-2)Gal(b1-3)[Fuc(a1-4)]GlcNAc(b1-2)Man(a1-6)]Man(b1-4)GlcNAc(b1-4)[Fuc(a1-6)]GlcNAc(b1-4)[Fuc(a1-6)]GlcNAc
# In short: as §1
# [20] = target: Fuc(a1-2)Gal(b1-3)[Fuc(a1-4)]GlcNAc(b1-3)[Fuc(a1-3)[Gal(b1-4)]GlcNAc(b1-6)]Gal(b1-4)Glc
# In short: as §1
# [21] = target: Fuc(a1-2)Gal(b1-3)[Fuc(a1-4)]GlcNAc(b1-3)[Gal(b1-4)GlcNAc(b1-6)]Gal(b1-4)Glc
# In short: as §1
# [22] = target: Fuc(a1-2)Gal(b1-4)Fuc(a1-3)]GlcNAc(b1-2)Man(a1-3)[Fuc(a1-2)Gal(b1-4)[Fuc(a1-3)]GlcNAc(b1-2)Man(a1-6)]Man(b1-4)GlcNAc(b1-4)GlcNAc
# In short: as §1
# [23] = target: Fuc(a1-2)Gal(b1-4)Glc
# In short: as §1
# [24] = target: Fuc(a1-2)Gal(b1-4)Glc6S
# In short: as §1
# [25] = target: Fuc(a1-2)Gal(b1-4)GlcNAc
# In short: as §1
# [26] = target: Fuc(a1-2)Gal(b1-4)GlcNAc(b1-2)Man
# In short: as §1
# [27] = target: Fuc(a1-2)Gal(b1-4)GlcNAc(b1-2)Man(a1-3)[Fuc(a1-2)Gal(b1-4)GlcNAc(b1-2)Man(a1-6)]Man(b1-4)GlcNAc(b1-4)GlcNAc
# In short: as §1
# [28] = target: Fuc(a1-2)Gal(b1-4)GlcNAc(b1-2)Man(a1-3)[Fuc(a1-2)Gal(b1-4)GlcNAc(b1-2)Man(a1-6)]Man(b1-4)GlcNAc(b1-4)[Fuc(a1-6)]GlcNAc
# In short: as §1
# [29] = target: Fuc(a1-2)Gal(b1-4)GlcNAc(b1-2)[Fuc(a1-2)Gal(b1-4)GlcNAc(b1-4)]Man(a1-3)[Fuc(a1-2)Gal(b1-4)GlcNAc(b1-2)Man(a1-6)]Man(b1-4)GlcNAc(b1-4)GlcNAc
# In short: as §1
# [30] = target: Fuc(a1-2)Gal(b1-4)GlcNAc(b1-3)Gal(b1-4)GlcNAc
# In short: as §1
# [31] = target: Fuc(a1-2)Gal(b1-4)GlcNAc(b1-3)Gal(b1-4)GlcNAc(b1-2)Man(a1-3)[Fuc(a1-2)Gal(b1-4)GlcNAc(b1-3)Gal(b1-4)GlcNAc(b1-2)Man(a1-6)]Man(b1-4)GlcNAc(b1-4)GlcNAc
# In short: as §1
# [32] = target: Fuc(a1-2)Gal(b1-4)GlcNAc(b1-3)Gal(b1-4)GlcNAc(b1-3)Gal(b1-4)GlcNAc
# In short: as §1
# [33] = target: Fuc(a1-2)Gal(b1-4)GlcNAc(b1-3)GalNAc
# In short: as §1
# [34] = target: Fuc(a1-2)Gal(b1-4)GlcNAc(b1-3)[Fuc(a1-2)Gal(b1-4)GlcNAc(b1-6)]GalNAc
# In short: as §1
# [35] = target: Fuc(a1-2)Gal(b1-4)GlcNAc(b1-3)[Fuc(a1-3)[Gal(b1-4)]GlcNAc(b1-6)]Gal(b1-4)Glc
# In short: as §1
# [36] = target: Fuc(a1-2)Gal(b1-4)GlcNAc(b1-6)GalNAc
# In short: as §1
# [37] = target: Fuc(a1-2)Gal(b1-4)GlcNAc6S
# In short: as §1
binder,measurement,setting,value
B1,glycan array binding signal (z-score),[1],-0.428
same,glycan array binding signal (z-score),[2],-0.304
same,glycan array binding signal (z-score),[3],-0.41
same,glycan array binding signal (z-score),[4],-0.409
same,glycan array binding signal (z-score),[5],0.227
same,glycan array binding signal (z-score),[6],-0.577
same,glycan array binding signal (z-score),[7],-0.221
same,glycan array binding signal (z-score),[8],-0.163
same,glycan array binding signal (z-score),[9],1.58
same,glycan array binding signal (z-score),[10],-0.203
same,glycan array binding signal (z-score),[11],-0.062
same,glycan array binding signal (z-score),[12],-0.589
same,glycan array binding signal (z-score),[13],0.337
same,glycan array binding signal (z-score),[14],-0.234
same,glycan array binding signal (z-score),[15],-0.178
same,glycan array binding signal (z-score),[16],-0.588
same,glycan array binding signal (z-score),[17],0.299
same,glycan array binding signal (z-score),[18],-0.07
same,glycan array binding signal (z-score),[19],0.228
same,glycan array binding signal (z-score),[20],0.45
same,glycan array binding signal (z-score),[21],-0.164
same,glycan array binding signal (z-score),[22],0.346
same,glycan array binding signal (z-score),[23],-0.51
same,glycan array binding signal (z-score),[24],-0.092
same,glycan array binding signal (z-score),[25],-0.225
same,glycan array binding signal (z-score),[26],0.223
same,glycan array binding signal (z-score),[27],2.16
same,glycan array binding signal (z-score),[28],0.75
same,glycan array binding signal (z-score),[29],0.752
same,glycan array binding signal (z-score),[30],-0.117
same,glycan array binding signal (z-score),[31],-0.181
same,glycan array binding signal (z-score),[32],0.219
same,glycan array binding signal (z-score),[33],-0.377
same,glycan array binding signal (z-score),[34],-0.15
same,glycan array binding signal (z-score),[35],0.299
same,glycan array binding signal (z-score),[36],1.06
same,glycan array binding signal (z-score),[37],-0.562
